In PubChem BioAssay (NCI):
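48-hour exposure; five concentrations; linearly interpolated endpoints. At the GI50, growth is halved. TGI denotes the concentration required for complete inhibition of growth.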

Test system: NCI-H322M lung
Assay: inhibition of tumour cell growth, NCI panel, 48 h

Compound | GI50 | TGI
O=C(NNc1nc2cc(F)ccc2n2c(CN3CC4CNCC4C3)ccc12)c1ccncn1 (stereo not drawn) | 1 µM | 13.4 µM
CC1(C)CC[C@]2(C(=O)O)CC[C@]3(C)C(=CCC4[C@@]5(C)C[C@@H](O)[C@@H]6OC(c7ccco7)OC[C@@]6(C)C5CC[C@]43C)C2C1 (stereo partly drawn) | 7.21 µM | 25.3 µM
CC1=C(C(=O)OCc2ccccc2)C(c2cccc3ccccc23)n2c(nc3ccccc32)N1 (stereo not drawn) | 8.39 µM | > 100 µM
Cc1cc2nc3c4ccccc4n(CCCN(C)C)c3nc2cc1C | 2.41 µM | 7.2 µM
